Substitutions are numbered along the chain they refer to; changes in the protein carry UniProt numbers. The list shows a part of the results.
T1: RBFOX1 RRM (Homo sapiens, UniProt Q9NWB1 109-208)
T1 sequence: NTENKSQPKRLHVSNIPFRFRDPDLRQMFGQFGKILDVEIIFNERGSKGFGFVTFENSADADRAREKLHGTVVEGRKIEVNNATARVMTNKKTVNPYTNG

B1: UAUCCCC (DNA:RNA)
RNA: GGGAGACCGGAAUUCAGAUUGUCCUAUCCCCUUAAAUCCCGUCGUAGCCACCA
DNA 1: CAATCTGAATTCCGGTCTCCC
DNA 2: TGGTGGCTACGACGGGATT
B2: CGGUCAC (DNA:RNA)
RNA: B1 RNA with U25C, A26G, U27G, C28U, C30A
DNA 1: CAATCTGAATTCCGGTCTCCC
DNA 2: TGGTGGCTACGACGGGATT
B3: GGUGUGG (DNA:RNA)
RNA: B1 RNA with U25G, A26G, C28G, C29U, C30G, C31G
DNA 1: CAATCTGAATTCCGGTCTCCC
DNA 2: TGGTGGCTACGACGGGATT
B4: AUUCCGU (DNA:RNA)
RNA: B1 RNA with U25A, A26U, C30G, C31U
DNA 1: CAATCTGAATTCCGGTCTCCC
DNA 2: TGGTGGCTACGACGGGATT
B5: GGUGGCU (DNA:RNA)
RNA: B1 RNA with U25G, A26G, C28G, C29G, C31U
DNA 1: CAATCTGAATTCCGGTCTCCC
DNA 2: TGGTGGCTACGACGGGATT
B6: UCAUGGA (DNA:RNA)
RNA: B1 RNA with A26C, U27A, C28U, C29G, C30G, C31A
DNA 1: CAATCTGAATTCCGGTCTCCC
DNA 2: TGGTGGCTACGACGGGATT
B7: CCGCGCG (DNA:RNA)
RNA: B1 RNA with U25C, A26C, U27G, C29G, C31G
DNA 1: CAATCTGAATTCCGGTCTCCC
DNA 2: TGGTGGCTACGACGGGATT
B8: CCUCCUC (DNA:RNA)
RNA: B1 RNA with U25C, A26C, C30U
DNA 1: CAATCTGAATTCCGGTCTCCC
DNA 2: TGGTGGCTACGACGGGATT
B9: AGUCACC (DNA:RNA)
RNA: B1 RNA with U25A, A26G, C29A
DNA 1: CAATCTGAATTCCGGTCTCCC
DNA 2: TGGTGGCTACGACGGGATT
B10: AUAAUGG (DNA:RNA)
RNA: GGGAGACCGGAAUUCAGAUUGUCCAUAAUGGUUAAAUCCCGUCGUAGCCACCA
DNA 1: CAATCTGAATTCCGGTCTCCC
DNA 2: TGGTGGCTACGACGGGATT
B11: UACCCCU (DNA:RNA)
RNA: B1 RNA with U27C, C31U
DNA 1: CAATCTGAATTCCGGTCTCCC
DNA 2: TGGTGGCTACGACGGGATT
B12: GAUGAGC (DNA:RNA)
RNA: B1 RNA with U25G, C28G, C29A, C30G
DNA 1: CAATCTGAATTCCGGTCTCCC
DNA 2: TGGTGGCTACGACGGGATT
B13: CAUUACG (DNA:RNA)
RNA: B1 RNA with U25C, C28U, C29A, C31G
DNA 1: CAATCTGAATTCCGGTCTCCC
DNA 2: TGGTGGCTACGACGGGATT
B14: UUCAGGA (DNA:RNA)
RNA: B10 RNA with A25U, A27C, U29G, G31A
DNA 1: CAATCTGAATTCCGGTCTCCC
DNA 2: TGGTGGCTACGACGGGATT
B15: GACCCUC (DNA:RNA)
RNA: B1 RNA with U25G, U27C, C30U
DNA 1: CAATCTGAATTCCGGTCTCCC
DNA 2: TGGTGGCTACGACGGGATT
B16: GCGUGAC (DNA:RNA)
RNA: B1 RNA with U25G, A26C, U27G, C28U, C29G, C30A
DNA 1: CAATCTGAATTCCGGTCTCCC
DNA 2: TGGTGGCTACGACGGGATT
B17: CAUUGGG (DNA:RNA)
RNA: B10 RNA with A25C, U26A, A27U, A28U, U29G
DNA 1: CAATCTGAATTCCGGTCTCCC
DNA 2: TGGTGGCTACGACGGGATT
B18: ACCUGAC (DNA:RNA)
RNA: B10 RNA with U26C, A27C, A28U, U29G, G30A, G31C
DNA 1: CAATCTGAATTCCGGTCTCCC
DNA 2: TGGTGGCTACGACGGGATT
B19: AGUCGCG (DNA:RNA)
RNA: B1 RNA with U25A, A26G, C29G, C31G
DNA 1: CAATCTGAATTCCGGTCTCCC
DNA 2: TGGTGGCTACGACGGGATT
B20: AUUCGGA (DNA:RNA)
RNA: B10 RNA with A27U, A28C, U29G, G31A
DNA 1: CAATCTGAATTCCGGTCTCCC
DNA 2: TGGTGGCTACGACGGGATT
B21: CCGGAAC (DNA:RNA)
RNA: B1 RNA with U25C, A26C, U27G, C28G, C29A, C30A
DNA 1: CAATCTGAATTCCGGTCTCCC
DNA 2: TGGTGGCTACGACGGGATT
B22: CCAUUUG (DNA:RNA)
RNA: B10 RNA with A25C, U26C, A28U, G30U
DNA 1: CAATCTGAATTCCGGTCTCCC
DNA 2: TGGTGGCTACGACGGGATT
B23: GGAGAAU (DNA:RNA)
RNA: B10 RNA with A25G, U26G, A28G, U29A, G30A, G31U
DNA 1: CAATCTGAATTCCGGTCTCCC
DNA 2: TGGTGGCTACGACGGGATT
B24: UGCCAGG (DNA:RNA)
RNA: B10 RNA with A25U, U26G, A27C, A28C, U29A
DNA 1: CAATCTGAATTCCGGTCTCCC
DNA 2: TGGTGGCTACGACGGGATT
B25: CAUAUAC (DNA:RNA)
RNA: B1 RNA with U25C, C28A, C29U, C30A
DNA 1: CAATCTGAATTCCGGTCTCCC
DNA 2: TGGTGGCTACGACGGGATT
B26: UUCCUUA (DNA:RNA)
RNA: B10 RNA with A25U, A27C, A28C, G30U, G31A
DNA 1: CAATCTGAATTCCGGTCTCCC
DNA 2: TGGTGGCTACGACGGGATT
B27: UGGUAGG (DNA:RNA)
RNA: B10 RNA with A25U, U26G, A27G, A28U, U29A
DNA 1: CAATCTGAATTCCGGTCTCCC
DNA 2: TGGTGGCTACGACGGGATT
B28: CGUCACU (DNA:RNA)
RNA: B1 RNA with U25C, A26G, C29A, C31U
DNA 1: CAATCTGAATTCCGGTCTCCC
DNA 2: TGGTGGCTACGACGGGATT
B29: UCCCCGU (DNA:RNA)
RNA: B1 RNA with A26C, U27C, C30G, C31U
DNA 1: CAATCTGAATTCCGGTCTCCC
DNA 2: TGGTGGCTACGACGGGATT
B30: ACCUGAG (DNA:RNA)
RNA: B10 RNA with U26C, A27C, A28U, U29G, G30A
DNA 1: CAATCTGAATTCCGGTCTCCC
DNA 2: TGGTGGCTACGACGGGATT
B31: UAUUUGC (DNA:RNA)
RNA: B1 RNA with C28U, C29U, C30G
DNA 1: CAATCTGAATTCCGGTCTCCC
DNA 2: TGGTGGCTACGACGGGATT

Target: T1, RBFOX1 RRM
Assay: EMSA; HiTS-Eq, 1 nM pool, 10 min; buffer printed only for the single-RNA assays: 10 mM Tris pH 7.5, 150 mM NaCl, 3.4 mM EDTA, 0.001% NP-40, 30 C
Conditions: tags: His6 N-terminal (pET28a); label: 5' 32P
In short: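 Purified RbFox RRM, wild type or mutant, was incubated for 10 min in 50 µL with 1 nM of a 5′-radiolabelled RNA pool carrying 7 randomized nucleotides, whose flanks were annealed to DNA oligonucleotides, over a series of increasing protein concentrations. Unbound RNA was resolved on 8% native PAGE, cut out, reverse-transcribed, barcoded by PCR and sequenced on an Illumina HiSeq 2500. Relative association constants were derived from changes in read counts for each RNA species versus the control reaction and normalised to the cognate motif.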

Row | Binder | binding signal
1 | B1 | 0.00216 KA relative to UGCAUGU
2 | B2 | 0.0121 KA relative to UGCAUGU
3 | B3 | 0.0188 KA relative to UGCAUGU
4 | B4 | 0.00358 KA relative to UGCAUGU
5 | B5 | 0.0164 KA relative to UGCAUGU
6 | B6 | 0.00376 KA relative to UGCAUGU
7 | B7 | 0.0119 KA relative to UGCAUGU
8 | B8 | 0.00747 KA relative to UGCAUGU
9 | B9 | 0.00324 KA relative to UGCAUGU
10 | B10 | 0.00564 KA relative to UGCAUGU
11 | B11 | 0.000824 KA relative to UGCAUGU
12 | B12 | 0.0153 KA relative to UGCAUGU
13 | B13 | 0.00857 KA relative to UGCAUGU
14 | B14 | 0.00272 KA relative to UGCAUGU
15 | B15 | 0.00192 KA relative to UGCAUGU
16 | B16 | 0.00835 KA relative to UGCAUGU

Row | Binder | binding signal
17 | B17 | 0.00383 KA relative to UGCAUGU
18 | B18 | 0.00816 KA relative to UGCAUGU
19 | B19 | 0.0136 KA relative to UGCAUGU
20 | B20 | 0.00416 KA relative to UGCAUGU
21 | B21 | 0.014 KA relative to UGCAUGU
22 | B22 | 0.00751 KA relative to UGCAUGU
23 | B23 | 0.0179 KA relative to UGCAUGU
24 | B24 | 0.0205 KA relative to UGCAUGU
25 | B25 | 0.000539 KA relative to UGCAUGU
26 | B26 | 0.0015 KA relative to UGCAUGU
27 | B27 | 0.014 KA relative to UGCAUGU
28 | B28 | 0.00348 KA relative to UGCAUGU
29 | B29 | 0.00198 KA relative to UGCAUGU
30 | B30 | 0.0112 KA relative to UGCAUGU
31 | B31 | 0.0187 KA relative to UGCAUGU

From PMC9911399, “Two distinct binding modes provide the RNA-binding protein RbFox with extraordinary sequence specificity”
